# Measurements from the supplement of paper PMC8728848.
# This is one part of the list.
# B1: SSR1 (Sclerotium rolfsii), A0A0M3KL30 (protein)
# chain: TYKITVRVYQTNPDAFFHPVEKTVWKYANGGTWTITDDQHVLTMGGSGTSGTLRFHADNGESFTATFGVHNYKRWCDIVTNLAADETGMVINQQYYSQKNREEARERQLSNYQVKNAKGRNFQIVYTEAEGNDLHANLIIG
# Experiments:
# Assay in all cases: glycan array binding signal (z-score within array); higher = stronger binding
# Settings in all cases: glycan notation: IUPAC condensed, linker removed
# [1] = molecular target: Gal(b1-4)GlcNAc(b1-3)Gal(b1-4)GlcNAc(b1-2)Man(a1-3)[Gal(b1-4)GlcNAc(b1-3)Gal(b1-4)GlcNAc(b1-2)Man(a1-6)]Man(b1-4)GlcNAc(b1-4)[Fuc(a1-6)]GlcNAc
# Procedure, shortened: (§1)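 Glycan array binding is given as a within-array Z-score, which can be read as non-binding when negative. The arrays, 3228 of them, came from the Consortium for Functional Glycomics database and were retained only where the protein sequence was available. Z-scores were averaged across arrays of the same protein sequence at different concentrations or buffers and across linkers.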
# [2] = molecular target: Gal(b1-4)GlcNAc(b1-3)Gal(b1-4)GlcNAc(b1-2)[Gal(b1-4)GlcNAc(b1-3)Gal(b1-4)GlcNAc(b1-6)]Man(a1-6)[Gal(b1-4)GlcNAc(b1-3)Gal(b1-4)GlcNAc(b1-2)Man(a1-3)]Man(b1-4)GlcNAc(b1-4)GlcNAc
# Procedure, shortened: as §1
# [3] = molecular target: Gal(b1-4)GlcNAc(b1-3)Gal(b1-4)GlcNAc(b1-2)[Gal(b1-4)GlcNAc(b1-3)Gal(b1-4)GlcNAc(b1-6)]Man(a1-6)[Gal(b1-4)GlcNAc(b1-3)Gal(b1-4)GlcNAc(b1-2)Man(a1-3)]Man(b1-4)GlcNAc(b1-4)[Fuc(a1-6)]GlcNAc
# Procedure, shortened: as §1
# [4] = molecular target: Gal(b1-4)GlcNAc(b1-3)Gal(b1-4)GlcNAc(b1-3)Gal(b1-4)GlcNAc
# Procedure, shortened: as §1
# [5] = molecular target: Gal(b1-4)GlcNAc(b1-3)Gal(b1-4)GlcNAc(b1-3)Gal(b1-4)GlcNAc(b1-2)Man(a1-3)[Gal(b1-4)GlcNAc(b1-3)Gal(b1-4)GlcNAc(b1-3)Gal(b1-4)GlcNAc(b1-2)Man(a1-6)]Man(b1-4)GlcNAc(b1-4)GlcNAc
# Procedure, shortened: as §1
# [6] = molecular target: Gal(b1-4)GlcNAc(b1-3)Gal(b1-4)GlcNAc(b1-3)Gal(b1-4)GlcNAc(b1-2)Man(a1-3)[Gal(b1-4)GlcNAc(b1-3)Gal(b1-4)GlcNAc(b1-3)Gal(b1-4)GlcNAc(b1-2)Man(a1-6)]Man(b1-4)GlcNAc(b1-4)[Fuc(a1-6)]GlcNAc
# Procedure, shortened: as §1
# [7] = molecular target: Gal(b1-4)GlcNAc(b1-3)Gal(b1-4)GlcNAc(b1-3)Gal(b1-4)GlcNAc(b1-2)[Gal(b1-4)GlcNAc(b1-3)Gal(b1-4)GlcNAc(b1-3)Gal(b1-4)GlcNAc(b1-6)]Man(a1-6)[Gal(b1-4)GlcNAc(b1-3)Gal(b1-4)GlcNAc(b1-3)Gal(b1-4)GlcNAc(b1-2)Man(a1-3)]Man(b1-4)GlcNAc(b1-4)[Fuc(a1-6)]GlcNAc
# Procedure, shortened: as §1
# [8] = molecular target: Gal(b1-4)GlcNAc(b1-3)Gal(b1-4)GlcNAc(b1-3)Gal(b1-4)GlcNAc(b1-3)Gal(b1-4)GlcNAc(b1-2)Man(a1-3)[Gal(b1-4)GlcNAc(b1-3)Gal(b1-4)GlcNAc(b1-3)Gal(b1-4)GlcNAc(b1-3)Gal(b1-4)GlcNAc(b1-2)Man(a1-6)]Man(b1-4)GlcNAc(b1-4)GlcNAc
# Procedure, shortened: as §1
# [9] = molecular target: Gal(b1-4)GlcNAc(b1-3)Gal(b1-4)GlcNAc(b1-3)Gal(b1-4)GlcNAc(b1-3)Gal(b1-4)GlcNAc(b1-2)Man(a1-3)[Gal(b1-4)GlcNAc(b1-3)Gal(b1-4)GlcNAc(b1-3)Gal(b1-4)GlcNAc(b1-3)Gal(b1-4)GlcNAc(b1-2)Man(a1-6)]Man(b1-4)GlcNAc(b1-4)[Fuc(a1-6)]GlcNAc
# Procedure, shortened: as §1
# [10] = molecular target: Gal(b1-4)GlcNAc(b1-3)Gal(b1-4)GlcNAc(b1-3)Gal(b1-4)GlcNAc(b1-3)Gal(b1-4)GlcNAc(b1-2)[Gal(b1-4)GlcNAc(b1-3)Gal(b1-4)GlcNAc(b1-3)Gal(b1-4)GlcNAc(b1-3)Gal(b1-4)GlcNAc(b1-6)]Man(a1-6)[Gal(b1-4)GlcNAc(b1-3)Gal(b1-4)GlcNAc(b1-3)Gal(b1-4)GlcNAc(b1-3)Gal(b1-4)GlcNAc(b1-2)Man(a1-3)]Man(b1-4)GlcNAc(b1-4)[Fuc(a1-6)]GlcNAc
# Procedure, shortened: as §1
# [11] = molecular target: Gal(b1-4)GlcNAc(b1-3)Gal(b1-4)GlcNAc(b1-3)Gal(b1-4)GlcNAc(b1-3)Gal(b1-4)GlcNAc(b1-3)Gal(b1-4)GlcNAc(b1-2)Man(a1-3)[Gal(b1-4)GlcNAc(b1-3)Gal(b1-4)GlcNAc(b1-3)Gal(b1-4)GlcNAc(b1-3)Gal(b1-4)GlcNAc(b1-3)Gal(b1-4)GlcNAc(b1-2)Man(a1-6)]Man(b1-4)GlcNAc(b1-4)GlcNAc
# Procedure, shortened: as §1
# [12] = molecular target: Gal(b1-4)GlcNAc(b1-3)Gal(b1-4)GlcNAc(b1-3)Gal(b1-4)GlcNAc(b1-3)Gal(b1-4)GlcNAc(b1-3)Gal(b1-4)GlcNAc(b1-2)Man(a1-3)[Gal(b1-4)GlcNAc(b1-3)Gal(b1-4)GlcNAc(b1-3)Gal(b1-4)GlcNAc(b1-3)Gal(b1-4)GlcNAc(b1-3)Gal(b1-4)GlcNAc(b1-2)Man(a1-6)]Man(b1-4)GlcNAc(b1-4)[Fuc(a1-6)]GlcNAc
# Procedure, shortened: as §1
# [13] = molecular target: Gal(b1-4)GlcNAc(b1-3)Gal(b1-4)GlcNAc(b1-3)Gal(b1-4)GlcNAc(b1-3)Gal(b1-4)GlcNAc(b1-3)Gal(b1-4)GlcNAc(b1-2)[Gal(b1-4)GlcNAc(b1-3)Gal(b1-4)GlcNAc(b1-3)Gal(b1-4)GlcNAc(b1-3)Gal(b1-4)GlcNAc(b1-3)Gal(b1-4)GlcNAc(b1-6)]Man(a1-6)[Gal(b1-4)GlcNAc(b1-3)Gal(b1-4)GlcNAc(b1-3)Gal(b1-4)GlcNAc(b1-3)Gal(b1-4)GlcNAc(b1-3)Gal(b1-4)GlcNAc(b1-2)Man(a1-3)]Man(b1-4)GlcNAc(b1-4)[Fuc(a1-6)]GlcNAc
# Procedure, shortened: as §1
# [14] = molecular target: Gal(b1-4)GlcNAc(b1-3)Gal(b1-4)GlcNAc(b1-3)Gal(b1-4)GlcNAc(b1-3)Gal(b1-4)GlcNAc(b1-3)Gal(b1-4)GlcNAc(b1-3)Gal(b1-4)GlcNAc(b1-2)Man(a1-3)[Gal(b1-4)GlcNAc(b1-3)Gal(b1-4)GlcNAc(b1-3)Gal(b1-4)GlcNAc(b1-3)Gal(b1-4)GlcNAc(b1-3)Gal(b1-4)GlcNAc(b1-3)Gal(b1-4)GlcNAc(b1-2)Man(a1-6)]Man(b1-4)GlcNAc(b1-4)GlcNAc
# Procedure, shortened: as §1
# [15] = molecular target: Gal(b1-4)GlcNAc(b1-3)Gal(b1-4)GlcNAc(b1-3)GalNAc
# Procedure, shortened: as §1
# [16] = molecular target: Gal(b1-4)GlcNAc(b1-3)Gal(b1-4)GlcNAc(b1-3)[Gal(b1-4)GlcNAc(b1-3)Gal(b1-4)GlcNAc(b1-6)]GalNAc
# Procedure, shortened: as §1
# [17] = molecular target: Gal(b1-4)GlcNAc(b1-3)Gal(b1-4)GlcNAc(b1-6)[Gal(b1-3)]GalNAc
# Procedure, shortened: as §1
# [18] = molecular target: Gal(b1-4)GlcNAc(b1-3)Gal(b1-4)[Fuc(a1-3)]GlcNAc(b1-3)Gal(b1-4)[Fuc(a1-3)]GlcNAc
# Procedure, shortened: as §1
# [19] = molecular target: Gal(b1-4)GlcNAc(b1-3)GalNAc
# Procedure, shortened: as §1
# [20] = molecular target: Gal(b1-4)GlcNAc(b1-3)[Fuc(a1-3)GlcNAc(b1-6)]Gal(b1-4)Glc
# Procedure, shortened: as §1
# [21] = molecular target: Gal(b1-4)GlcNAc(b1-3)[Gal(b1-4)GlcNAc(b1-6)]Gal(b1-4)GlcNAc
# Procedure, shortened: as §1
# [22] = molecular target: Gal(b1-4)GlcNAc(b1-3)[GlcNAc(b1-6)]Gal(b1-4)GlcNAc
# Procedure, shortened: as §1
binder,measurement,setting,value
B1,glycan array binding signal (z-score),[1],-0.323
same,glycan array binding signal (z-score),[2],-0.184
same,glycan array binding signal (z-score),[3],-0.332
same,glycan array binding signal (z-score),[4],-0.336
same,glycan array binding signal (z-score),[5],-0.278
same,glycan array binding signal (z-score),[6],-0.301
same,glycan array binding signal (z-score),[7],-0.33
same,glycan array binding signal (z-score),[8],-0.333
same,glycan array binding signal (z-score),[9],-0.316
same,glycan array binding signal (z-score),[10],-0.314
same,glycan array binding signal (z-score),[11],-0.316
same,glycan array binding signal (z-score),[12],-0.319
same,glycan array binding signal (z-score),[13],-0.282
same,glycan array binding signal (z-score),[14],-0.314
same,glycan array binding signal (z-score),[15],0.602
same,glycan array binding signal (z-score),[16],-0.458
same,glycan array binding signal (z-score),[17],0.687
same,glycan array binding signal (z-score),[18],-0.339
same,glycan array binding signal (z-score),[19],0.038
same,glycan array binding signal (z-score),[20],-0.31
same,glycan array binding signal (z-score),[21],-0.34
same,glycan array binding signal (z-score),[22],0.955
